How the values were obtained:
[1] = target: binding between SIRPα and CD47 (Homo sapiens, UniProt P78324); conditions: antibodies described in WO 2020/013170; cited from earlier work
[2] = target: human SIRPα (Homo sapiens, UniProt P78324); conditions: antibodies described in WO 2020/013170; cited from earlier work
[3] = test system: CD47, HER2 and TROP2 positive human gastric cancer cell line AGS cells; assay: ADCP activity to cancer cell line; type: cell-based

B1: hD13_H1L3: humanized anti-SIRPα antibody, heavy chain residues 20 to 466 of SEQ ID NO: 13, light chain residues 21 to 234 of SEQ ID NO: 16 (antibody)
heavy: QVQLVESGGGVVQPGRSLRLSCAASGFTFSDYGMIWVRQAPGKGLEWVASISSSSSYIYYADSVKGRFTISRDNSKNRLYLQMNSLRAEDTAVYYCARRYYGFNYPFDYWGQGTMVTVSSASTKGPSVFPLAPCSRSTSESTAALGCLVKDYFPEPVTVSWNSGALTSGVHTFPAVLQSSGLYSLSSVVTVPSSSLGTKTYTCNVDHKPSNTKVDKRV[… human IgG4 Fc with S228P F234A L235A (EU numbers) …]
light: DTQLTQSPSSLSASVGQRVTITCGASKSVRTYMHWYQQKPGKQPKLLIYSASNLEAGVPSRFSGSGSGTDFTLTISSLQPEDFATYYCQQSNEPPYTFGQGTKLEIKRTVAAPSVFIFPPSDEQLKSGTASVVCLLNNFYPREAKVQWKVDNALQSGNSQESVTEQDSKDSTYSLSSTLTLSKADYEKHKVYACEVTHQGLSSPVTKSFNRGEC
[1]
  inhibitory activity against the binding between SIRPα and CD47: high inhibitory activity
[2]
  binding activity to human SIRPα: high binding activity
[3]; hD13_H1L3 0 to 2000 ng/mL with antibody-drug conjugate (1) constant at 1000 ng/mL (FIG. 31C)
  ADCP activity, anti-SIRPα antibody concentration varied: increased in an anti-SIRPα antibody concentration dependent manner
[3]; hD13_H1L3 0 to 2000 ng/mL with antibody-drug conjugate (2) constant at 1000 ng/mL (FIG. 31D)
  ADCP activity, anti-SIRPα antibody concentration varied: increased in an anti-SIRPα antibody concentration dependent manner

— patent US20230414778A1, “COMBINATION OF ANTIBODY-DRUG CONJUGATE WITH ANTI-SIRPalpha ANTIBODY” (DAIICHI SANKYO COMPANY, LIMITED, priority 2020, published 2023)
